# Test results taken from the supplement of paper PMC8728848.
# The other results are listed elsewhere or left out.
# Experiments:
# Assay in all cases: glycan array binding signal (z-score within array); higher = stronger binding
# Settings in all cases: glycan notation: IUPAC condensed, linker removed
# [1] = molecular target: Neu5Ac(a2-3)Gal(b1-3)GalNAc
# Procedure, shortened: (§1)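 Negative Z-scores can be read as non-binding. The Z-score is calculated within each array and then averaged across arrays of one protein sequence at different concentrations or buffers and across linkers. Arrays, 3228 in all, were curated from the Consortium for Functional Glycomics database and kept only where the protein sequence was available.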
# [2] = molecular target: Neu5Ac(a2-3)Gal(b1-3)GalNAc(b1-3)Gal(a1-4)Gal(b1-4)Glc
# Procedure, shortened: as §1
# [3] = molecular target: Neu5Ac(a2-3)Gal(b1-3)GalNAc(b1-4)Gal(b1-4)Glc
# Procedure, shortened: as §1
# [4] = molecular target: Neu5Ac(a2-3)Gal(b1-3)GalNAc(b1-4)[Neu5Ac(a2-3)]Gal(b1-4)Glc
# Procedure, shortened: as §1
# [5] = molecular target: Neu5Ac(a2-3)Gal(b1-3)GalNAc(b1-4)[Neu5Ac(a2-8)Neu5Ac(a2-3)]Gal(b1-4)Glc
# Procedure, shortened: as §1
# [6] = molecular target: Neu5Ac(a2-3)Gal(b1-3)GalNAc6S
# Procedure, shortened: as §1
# [7] = molecular target: Neu5Ac(a2-3)Gal(b1-3)GlcNAc
# Procedure, shortened: as §1
# [8] = molecular target: Neu5Ac(a2-3)Gal(b1-3)GlcNAc(b1-2)Man
# Procedure, shortened: as §1
# [9] = molecular target: Neu5Ac(a2-3)Gal(b1-3)GlcNAc(b1-2)Man(a1-3)[GlcNAc(b1-4)][Neu5Ac(a2-3)Gal(b1-3)GlcNAc(b1-2)Man(a1-6)]Man(b1-4)GlcNAc(b1-4)GlcNAc
# Procedure, shortened: as §1
# [10] = molecular target: Neu5Ac(a2-3)Gal(b1-3)GlcNAc(b1-2)Man(a1-3)[Neu5Ac(a2-3)Gal(b1-3)GlcNAc(b1-2)Man(a1-6)]Man(b1-4)GlcNAc(b1-4)GlcNAc
# Procedure, shortened: as §1
# [11] = molecular target: Neu5Ac(a2-3)Gal(b1-3)GlcNAc(b1-2)[Neu5Ac(a2-3)Gal(b1-3)GlcNAc(b1-4)]Man(a1-6)[Neu5Ac(a2-3)Gal(b1-3)GlcNAc(b1-2)Man(a1-3)]Man(b1-4)GlcNAc(b1-4)GlcNAc
# Procedure, shortened: as §1
# [12] = molecular target: Neu5Ac(a2-3)Gal(b1-3)GlcNAc(b1-3)Gal(b1-3)GlcNAc
# Procedure, shortened: as §1
# [13] = molecular target: Neu5Ac(a2-3)Gal(b1-3)GlcNAc(b1-3)Gal(b1-4)GlcNAc
# Procedure, shortened: as §1
# [14] = molecular target: Neu5Ac(a2-3)Gal(b1-3)GlcNAc(b1-3)GalNAc
# Procedure, shortened: as §1
# [15] = molecular target: Neu5Ac(a2-3)Gal(b1-3)GlcNAc(b1-6)GalNAc
# Procedure, shortened: as §1
# [16] = molecular target: Neu5Ac(a2-3)Gal(b1-3)GlcNAc6S
# Procedure, shortened: as §1
# [17] = molecular target: Neu5Ac(a2-3)Gal(b1-3)[Fuc(a1-4)]GlcNAc
# Procedure, shortened: as §1
# [18] = molecular target: Neu5Ac(a2-3)Gal(b1-3)[Fuc(a1-4)]GlcNAc(b1-3)Gal(b1-3)[Fuc(a1-4)]GlcNAc
# Procedure, shortened: as §1
# [19] = molecular target: Neu5Ac(a2-3)Gal(b1-3)[Fuc(a1-4)]GlcNAc(b1-3)Gal(b1-4)[Fuc(a1-3)]GlcNAc
# Procedure, shortened: as §1
# [20] = molecular target: Neu5Ac(a2-3)Gal(b1-3)[GlcNAc(b1-6)]GalNAc
# Procedure, shortened: as §1
# [21] = molecular target: Neu5Ac(a2-3)Gal(b1-3)[Neu5Ac(a2-6)]GalNAc
# Procedure, shortened: as §1
# [22] = molecular target: Neu5Ac(a2-3)Gal(b1-3)[Neu5Ac(a2-6)]GlcNAc(b1-3)[Fuc(a1-3)[Gal(b1-4)]GlcNAc(b1-6)]Gal(b1-4)Glc
# Procedure, shortened: as §1
# [23] = molecular target: Neu5Ac(a2-3)Gal(b1-3)]Neu5Ac(a2-3)Gal(b1-4)]GlcNAc
# Procedure, shortened: as §1
# Neu5Ac(a2-3)Gal(b1-4)Glc = molecular target: Neu5Ac(a2-3)Gal(b1-4)Glc
# Procedure, shortened: as §1
# [24] = molecular target: Neu5Ac(a2-3)Gal(b1-4)GlcNAc
# Procedure, shortened: as §1
# [25] = molecular target: Neu5Ac(a2-3)Gal(b1-4)GlcNAc(b1-2)Man
# Procedure, shortened: as §1
# [26] = molecular target: Neu5Ac(a2-3)Gal(b1-4)GlcNAc(b1-2)Man(a1-3)[GlcNAc(b1-4)][Neu5Ac(a2-3)Gal(b1-4)GlcNAc(b1-2)Man(a1-6)]Man(b1-4)GlcNAc(b1-4)GlcNAc
# Procedure, shortened: as §1
# [27] = molecular target: Neu5Ac(a2-3)Gal(b1-4)GlcNAc(b1-2)Man(a1-3)[Neu5Ac(a2-3)Gal(b1-4)GlcNAc(b1-2)Man(a1-6)]Man(b1-4)GlcNAc(b1-4)GlcNAc
# Procedure, shortened: as §1
# [28] = molecular target: Neu5Ac(a2-3)Gal(b1-4)GlcNAc(b1-2)Man(a1-3)[Neu5Ac(a2-3)Gal(b1-4)GlcNAc(b1-2)Man(a1-6)]Man(b1-4)GlcNAc(b1-4)[Fuc(a1-6)]GlcNAc
# Procedure, shortened: as §1
# [29] = molecular target: Neu5Ac(a2-3)Gal(b1-4)GlcNAc(b1-2)Man(a1-3)[Neu5Ac(a2-6)Gal(b1-4)GlcNAc(b1-2)Man(a1-6)]Man(b1-4)GlcNAc(b1-4)GlcNAc
# Procedure, shortened: as §1
# [30] = molecular target: Neu5Ac(a2-3)Gal(b1-4)GlcNAc(b1-2)[Neu5Ac(a2-3)Gal(b1-4)GlcNAc(b1-4)]Man(a1-3)[GlcNAc(b1-4)][Neu5Ac(a2-3)Gal(b1-4)GlcNAc(b1-2)[Neu5Ac(a2-3)Gal(b1-4)GlcNAc(b1-6)]Man(a1-6)]Man(b1-4)GlcNAc(b1-4)GlcNAc
# Procedure, shortened: as §1
# [31] = molecular target: Neu5Ac(a2-3)Gal(b1-4)GlcNAc(b1-2)[Neu5Ac(a2-3)Gal(b1-4)GlcNAc(b1-4)]Man(a1-3)[GlcNAc(b1-4)][Neu5Ac(a2-3)Gal(b1-4)GlcNAc(b1-4)Man(a1-6)]Man(b1-4)GlcNAc(b1-4)GlcNAc
# Procedure, shortened: as §1
# [32] = molecular target: Neu5Ac(a2-3)Gal(b1-4)GlcNAc(b1-2)[Neu5Ac(a2-3)Gal(b1-4)GlcNAc(b1-6)]Man(a1-6)[Neu5Ac(a2-3)Gal(b1-4)GlcNAc(b1-2)Man(a1-3)][GlcNAc(b1-4)]Man(b1-4)GlcNAc(b1-4)GlcNAc
# Procedure, shortened: as §1
# [33] = molecular target: Neu5Ac(a2-3)Gal(b1-4)GlcNAc(b1-3)Gal
# Procedure, shortened: as §1
# [34] = molecular target: Neu5Ac(a2-3)Gal(b1-4)GlcNAc(b1-3)Gal(b1-3)GlcNAc
# Procedure, shortened: as §1
# [35] = molecular target: Neu5Ac(a2-3)Gal(b1-4)GlcNAc(b1-3)Gal(b1-4)GlcNAc
# Procedure, shortened: as §1
# [36] = molecular target: Neu5Ac(a2-3)Gal(b1-4)GlcNAc(b1-3)Gal(b1-4)GlcNAc(b1-2)Man(a1-3)[Neu5Ac(a2-3)Gal(b1-4)GlcNAc(b1-3)Gal(b1-4)GlcNAc(b1-2)Man(a1-6)]Man(b1-4)GlcNAc(b1-4)GlcNAc
# Procedure, shortened: as §1
binder,measurement,setting,value
B1257 (Bifidobacterium sp) (protein) MKKSIRLVAAIAALAMTAGISACGSSTNGNQAKSDVTAQDVETALTDTSKNVELTVWAYSAKQMEPTVKAFEKKYPHIKINFVNTGAAGDHFTKFQNVVQAQKDIPDVVQMGANKFQQFAVSGALLNFANDSIEKAWSKLYTKTAWAQVHYAGGLYGAPQDATPLANYVRKDILDEHNLQVPESWEDIYNEGIKLHKEDSNKYMGILGSDISFFTNLYRSVGARLWKVNSVDDVELTMNSGKAKEFTEFLQKCLKDGVLEGGTVFTDEFNRSINDGRYATFINENWMGNTYKEQNPSLKGKMVVAAPPSWKGQPYQSSSVGSMMSVSAACPKEKQAAALAFINWLDSDKDAIQSWQDTNNGNFFMAASVYQDDENQRNKKETDGYYANDDVNAVYFDSMDKVNTDWEYLPFMSQVEVVFNDVIVPQMNENGDLVGAMAKAQQELKTYAKDNGFKVTTDAD,glycan array binding signal (z-score),[1],-0.071
same,glycan array binding signal (z-score),[2],-0.056
same,glycan array binding signal (z-score),[3],-0.101
same,glycan array binding signal (z-score),[4],-0.062
same,glycan array binding signal (z-score),[5],-0.125
same,glycan array binding signal (z-score),[6],-0.118
same,glycan array binding signal (z-score),[7],-0.109
same,glycan array binding signal (z-score),[8],-0.095
same,glycan array binding signal (z-score),[9],-0.048
same,glycan array binding signal (z-score),[10],-0.027
same,glycan array binding signal (z-score),[11],-0.013
same,glycan array binding signal (z-score),[12],-0.195
same,glycan array binding signal (z-score),[13],-0.142
same,glycan array binding signal (z-score),[14],-0.12
same,glycan array binding signal (z-score),[15],-0.02
same,glycan array binding signal (z-score),[16],-0.184
same,glycan array binding signal (z-score),[17],-0.08
same,glycan array binding signal (z-score),[18],0.035
same,glycan array binding signal (z-score),[19],0.01
same,glycan array binding signal (z-score),[20],0.008
same,glycan array binding signal (z-score),[21],0.04
same,glycan array binding signal (z-score),[22],-0.061
same,glycan array binding signal (z-score),[23],-0.147
same,glycan array binding signal (z-score),Neu5Ac(a2-3)Gal(b1-4)Glc,-0.103
same,glycan array binding signal (z-score),[24],-0.138
same,glycan array binding signal (z-score),[25],0.015
same,glycan array binding signal (z-score),[26],-0.115
same,glycan array binding signal (z-score),[27],-0.163
same,glycan array binding signal (z-score),[28],-0.039
same,glycan array binding signal (z-score),[29],-0.138
same,glycan array binding signal (z-score),[30],-0.063
same,glycan array binding signal (z-score),[31],-0.096
same,glycan array binding signal (z-score),[32],-0.126
same,glycan array binding signal (z-score),[33],-0.111
same,glycan array binding signal (z-score),[34],-0.16
same,glycan array binding signal (z-score),[35],-0.172
same,glycan array binding signal (z-score),[36],0.154
